According to article PMC7764236:
These are yes or no findings as the source states them, for the method shown. For some assays here: Binding seen in cells or lysates may run through a third protein. Some results given as binding are weak or reduced against the parent protein; the word gives no strength. Where a sequence is shown, tags or fusion partners need not be part of it.

T1: GST-UBAC1 fusion protein (human) (UniProt Q9BSL1)
T1 sequence: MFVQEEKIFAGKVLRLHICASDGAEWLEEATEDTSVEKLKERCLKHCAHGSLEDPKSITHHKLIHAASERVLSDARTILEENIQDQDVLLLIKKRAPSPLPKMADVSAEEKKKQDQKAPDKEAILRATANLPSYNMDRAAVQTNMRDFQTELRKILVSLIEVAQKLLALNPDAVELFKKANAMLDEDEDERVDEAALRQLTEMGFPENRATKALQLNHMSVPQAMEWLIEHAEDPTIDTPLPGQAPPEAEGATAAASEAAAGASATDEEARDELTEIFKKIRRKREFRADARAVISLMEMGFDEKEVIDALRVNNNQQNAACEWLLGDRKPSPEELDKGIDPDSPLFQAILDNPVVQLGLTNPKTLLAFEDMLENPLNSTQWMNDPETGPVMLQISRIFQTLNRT

T2: FLAG-tagged UBAC1 (human) (UniProt Q9BSL1)
T2 sequence: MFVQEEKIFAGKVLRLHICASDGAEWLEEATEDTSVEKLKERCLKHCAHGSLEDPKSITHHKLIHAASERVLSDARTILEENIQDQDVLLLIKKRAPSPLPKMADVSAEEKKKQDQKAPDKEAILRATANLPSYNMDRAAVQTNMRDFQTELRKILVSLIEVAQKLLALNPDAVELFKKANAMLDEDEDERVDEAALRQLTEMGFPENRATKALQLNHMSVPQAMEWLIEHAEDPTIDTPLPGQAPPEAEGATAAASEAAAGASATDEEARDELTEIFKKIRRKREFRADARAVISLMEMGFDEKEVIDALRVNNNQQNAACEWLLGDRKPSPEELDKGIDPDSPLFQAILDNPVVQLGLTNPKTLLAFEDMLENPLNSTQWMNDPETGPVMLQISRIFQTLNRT

T3: TANK (UniProt Q92844)
T3 sequence: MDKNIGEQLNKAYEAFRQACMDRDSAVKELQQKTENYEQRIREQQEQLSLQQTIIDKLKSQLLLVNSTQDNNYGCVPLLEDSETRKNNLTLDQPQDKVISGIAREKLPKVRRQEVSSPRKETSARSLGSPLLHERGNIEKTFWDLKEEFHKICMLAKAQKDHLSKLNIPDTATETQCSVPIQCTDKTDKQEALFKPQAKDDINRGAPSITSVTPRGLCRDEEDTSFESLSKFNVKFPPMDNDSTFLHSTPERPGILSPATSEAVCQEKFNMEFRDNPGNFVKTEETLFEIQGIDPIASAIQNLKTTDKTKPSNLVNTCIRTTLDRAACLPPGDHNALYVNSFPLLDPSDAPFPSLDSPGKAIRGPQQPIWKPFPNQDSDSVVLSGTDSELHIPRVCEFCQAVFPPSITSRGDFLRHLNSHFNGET


Columns and labels:
[1] = molecular target: T1, GST-UBAC1 fusion protein (human); assay: pull-down; Sepharose-bound GST-UBAC1 (1.5 μg) or GST mixed with HaCaT cell lysates overnight at 4 °C; blot with anti-CARMA2; only the target purified
[2] = molecular target: T2, FLAG-tagged UBAC1 (human); assay: co-IP; HEK293T co-transfected with FLAG-UBAC1 and HA-tagged CARMA2 polypeptides, 24 h; lysis buffer 150 mM NaCl, 20 mM Hepes pH 7.4, 1% Triton X-100, 10% glycerol; anti-FLAG immunoprecipitation, immunoblot
[3] = molecular target: CARMA2sh fused to the DNA binding domain of transcription factor GAL4 (human) (UniProt Q9BXL6); assay: two-hybrid; individual plasmid transformations in yeast AH109; growth on selective media, ten independent transformants; + growth within 36 h, - no growth within 5 days
[4] = molecular target: CARMA2sh fused to the DNA binding domain of transcription factor GAL4 (human) (UniProt Q9BXL6); assay: two-hybrid; library screen: GAL4DBD-CARMA2sh bait (pGBKT7) against a human peripheral blood leucocyte cDNA library in pACT2, yeast AH109; selective growth and β-galactosidase reporter
TANK = molecular target: T3, TANK; assay: co-IP; HEK293 cells transfected with TANK and UBAC1, 24 h; lysates immunoprecipitated with anti-HA antibody, immunoblot

binding [2]	Molecule	other results
binds	CARMA2shE142G, HA-tagged (from UniProt Q9BXL6-2 1-740)	–
binds	HA-tagged CARMA2sh (from UniProt Q9BXL6-2 1-740)	–
binds	CARMA2CCL (coiled coil, CARMA2sh 123-550), HA-tagged (domain or fragment, UniProt Q9BXL6-2 123-550) KLTECLAGAIGSLQEELNQEKGQKEVLLRRCQQLQEHLGLAETRAEGLHQLEADHSRMKREVSAHFHEVLRLKDEMLSLSLHYSNALQEKELAASRCRSLQEELYLLKQELQRANMVSSCELELQEQSLRTASDQESGDEELNRLKEENEKLRSLTFSLAEKDILEQSLDEARGSRQELVERIHSLRERAVAAERQREQYWEEKEQTLLQFQKSKMACQLYREKVNALQAQVCELQKERDQAYSARDSAQREISQSLVEKDSLRRQVFELTDQVCELRTQLRQLQAEPPGVLKQEARTREPCPREKQRLVRMHAICPRDDSDCSLVSSTESQLLSDLSATSSRELVDSFRSSSPAPPSQQSLYKRVAEDFGEEPWSFSSCLEIPEGDPGALPGAKAGDPHLDYELLDTADLPQLESSLQPVSPGRLDV	–

Further lines, the molecule ahead of its results:

Molecule	binding [2]	other results
endogenous CARMA2sh (from UniProt Q9BXL6-2 1-740)	–	binding [1]: binds
CARMA2shE138A, HA-tagged (from UniProt Q9BXL6-2 1-740)	binds	–
CARMA2PDZ (PDZ domain, CARMA2sh 550-690), HA-tagged (from UniProt Q9BXL6-2 550-690) (domain or fragment)	binds	–
CARMA2CARD (CARD domain, CARMA2sh 1-123), HA-tagged (from UniProt Q9BXL6-2 1-123) (domain or fragment)	no binding	–
CARMA2cl, alternatively spliced isoform, HA-tagged (from UniProt Q9BXL6-3 1-434)	binds	–
UBAC1/KPC2 (amino acids 99-404) fused to the transcription activation domain of GAL4 (domain or fragment, UniProt Q9BSL1 99-404) PLPKMADVSAEEKKKQDQKAPDKEAILRATANLPSYNMDRAAVQTNMRDFQTELRKILVSLIEVAQKLLALNPDAVELFKKANAMLDEDEDERVDEAALRQLTEMGFPENRATKALQLNHMSVPQAMEWLIEHAEDPTIDTPLPGQAPPEAEGATAAASEAAAGASATDEEARDELTEIFKKIRRKREFRADARAVISLMEMGFDEKEVIDALRVNNNQQNAACEWLLGDRKPSPEELDKGIDPDSPLFQAILDNPVVQLGLTNPKTLLAFEDMLENPLNSTQWMNDPETGPVMLQISRIFQTLNR	–	binding [3]: binds; binding [4]: binds
FLAG-tagged UBAC1 (protein, UniProt Q9BSL1 1-405) MFVQEEKIFAGKVLRLHICASDGAEWLEEATEDTSVEKLKERCLKHCAHGSLEDPKSITHHKLIHAASERVLSDARTILEENIQDQDVLLLIKKRAPSPLPKMADVSAEEKKKQDQKAPDKEAILRATANLPSYNMDRAAVQTNMRDFQTELRKILVSLIEVAQKLLALNPDAVELFKKANAMLDEDEDERVDEAALRQLTEMGFPENRATKALQLNHMSVPQAMEWLIEHAEDPTIDTPLPGQAPPEAEGATAAASEAAAGASATDEEARDELTEIFKKIRRKREFRADARAVISLMEMGFDEKEVIDALRVNNNQQNAACEWLLGDRKPSPEELDKGIDPDSPLFQAILDNPVVQLGLTNPKTLLAFEDMLENPLNSTQWMNDPETGPVMLQISRIFQTLNRT	–	binding (TANK): binds
